In PubChem BioAssay AID1030 (National Center for Advancing Translational Sciences (NCATS), 2008):
Among all 220,000 compounds or so, about 16,000 (7.3%) were called active. Inconclusive means that the source gave no clear call. Such entries were picked first, then a sample of the others. The call rests on the fitted dose curve; in most records, active means well fitted inhibition curve with a large enough effect (not every such curve was filed as active); inconclusive means small, poorly fitted or top-dose-only effect, or another doubt; inactive means no such curve, though single readings can be large or run the other way. Potencies of inconclusive entries are left out as doubtful fits.

Each compound was assayed against Aldehyde dehydrogenase 1A1 (Homo sapiens) (UniProt P00352) (assay: qHTS Assay for Inhibitors of Aldehyde Dehydrogenase 1 (ALDH1A1)). Conditions: Purified ALDH1A1, NADH fluorescence, propionaldehyde substrate; series mostly up to 75.3 µM; activity, negative = inhibition: at the top concentration.
Potency means the concentration at half of the fitted maximal effect; tags describe the fitted curve by direction and shape.
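Wherever activity, negative = inhibition is given: plate controls were no enzyme wells and a reference inhibitor.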

Chain of UniProt P00352 (P00352 whole entry, looked up): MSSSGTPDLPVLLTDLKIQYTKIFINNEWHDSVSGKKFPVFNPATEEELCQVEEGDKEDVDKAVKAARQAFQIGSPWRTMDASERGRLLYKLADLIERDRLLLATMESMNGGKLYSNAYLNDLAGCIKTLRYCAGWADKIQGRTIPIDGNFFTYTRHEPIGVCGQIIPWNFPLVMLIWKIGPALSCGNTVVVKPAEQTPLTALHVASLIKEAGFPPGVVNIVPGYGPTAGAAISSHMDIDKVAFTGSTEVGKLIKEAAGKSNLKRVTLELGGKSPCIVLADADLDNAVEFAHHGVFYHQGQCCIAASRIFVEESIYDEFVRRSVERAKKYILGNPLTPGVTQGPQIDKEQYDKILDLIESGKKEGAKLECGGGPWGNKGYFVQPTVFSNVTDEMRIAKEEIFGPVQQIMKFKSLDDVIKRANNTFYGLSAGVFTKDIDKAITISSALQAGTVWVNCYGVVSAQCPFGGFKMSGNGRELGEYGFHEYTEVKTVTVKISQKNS

For `COc1ccc(NCC(=O)Nc2ccc(Br)cc2F)c(OC)c1`, which Potency is on record?
The Potency was active: 1.58 µM.

`CC1CCN(C(=O)Cn2c(SCC(=O)Nc3nccs3)nc3ccccc32)CC1` was tested. Which “activity, negative = inhibition” value did it give?
Its value is inactive: -12.9%.

With `CC1=CC(C)(C)Nc2ccc(OC(=O)CN3C(=O)c4cccc5cccc(c45)C3=O)cc21` as the compound, how does the Potency read?
The Potency was active: 11.2 µM.

With `O=c1oc(-c2ccccc2F)nc2scc(-c3ccccc3)c12` as the compound, how does the Potency read?
The Potency was inconclusive [inhibitor, single point].

For `CCc1ccc(-c2nc(CN3CCC(C(=O)NCc4ccc(F)cc4)CC3)c(C)o2)cc1`, which Potency is on record?
The Potency was inconclusive [inhibitor, single point].

For `Nc1ccc2nc[nH]c2c1`, which “activity, negative = inhibition” value is on record?
Its value is inactive: -3.14%.

How did the Potency turn out when `N#Cc1ccc(-c2ccc(Cl)cc2)nc1Oc1ccc(F)cc1` was run?
Its Potency is inconclusive [inhibitor, single point].

Which “activity, negative = inhibition” value does the source give for `O=C(NCc1ccncc1)C(=O)Nc1nc2ccccc2s1` here?
Its value is inactive: -9.74%.

How did the “activity, negative = inhibition” value turn out when `C=CCNC(=O)c1c(Cl)cnn1-c1ccc(C)cc1` was run?
The value was inactive: -11.8%.

Which Potency does the source give for `CC(C)(C)c1cc(C(F)(F)F)c(C#N)c(=O)[nH]1` here?
Its Potency is inconclusive [inhibitor, partial curve].

Which Potency does the source give for `CCN1CCN(Cc2c(O)ccc3c(=O)c(-c4ccc(OC)c(OC)c4)c(C(F)(F)F)oc23)CC1` here?
The Potency was inconclusive [inhibitor, partial curve, poor fit].

`COc1ccc(/C=N/NC(=S)N[C@H]2CC3CCC2C3)cc1` (stereo not given in full) was tested. Which Potency did it give?
The Potency was inconclusive [inhibitor, partial curve].

`Cc1ccc([N+](=O)[O-])cc1NC(=S)NC(=O)C(C)(C)C` was tested. Which Potency did it give?
The Potency was active: 4.47 µM.

How did the Potency turn out when `CC1CCN(C(=O)COC(=O)[C@H](C)NS(=O)(=O)/C=C/c2ccccc2)CC1` was run?
The Potency was inconclusive [inhibitor, single point].

`CC(=O)OC1CC[C@]2(C)C(=CCC3C4CCC(C(C)CCCC(C)C)[C@]4(C)CCC32)C1` (stereo not given in full) was tested. Which “activity, negative = inhibition” value did it give?
Its value is inactive: 1.04%.

Which Potency does the source give for `NS(=O)(=O)c1ccc(N=Cc2c(O)c3ccccc3oc2=O)cc1` here?
The Potency was inconclusive [inhibitor, single point].

Which Potency does the source give for `CCCCOc1ccccc1Cn1c(=O)oc2ccc(C)cc21` here?
Its Potency is inconclusive [inhibitor, partial curve].

With `CCOC(=O)C1=C(C)Nc2sc(C(=O)c3ccc(Br)cc3)c(N)c2C1c1ccc(C(=O)OC)cc1` (stereo not given) as the compound, how does the “activity, negative = inhibition” value read?
Its value is inactive: 4.19%.

How did the “activity, negative = inhibition” value turn out when `COc1ccc(NC(=O)Nc2cccs2)cc1Cl` was run?
The value was inactive: -12.3%.

With `O=C(Nc1nnc(-c2ccccc2)o1)Nc1ccc(F)cc1F` as the compound, how does the Potency read?
Its Potency is inconclusive [inhibitor, single point].

For `O=S(=O)(Nc1nc2ccccc2nc1Nc1cccc(S(=O)(=O)N2CCCCC2)c1)c1ccccc1`, which Potency is on record?
Its Potency is inconclusive [inhibitor, partial curve].

For `COc1ccc(Cn2nnnc2C(c2cc3cc(C)ccc3[nH]c2=O)N2CCOCC2)cc1` (stereo not given), which Potency is on record?
Its Potency is inconclusive [inhibitor, partial curve].

Which Potency does the source give for `Cc1csc(/N=C/c2ccc([N+](=O)[O-])cc2)n1` here?
Its Potency is active: 11.2 µM.

`O=C(CSc1nnc(C2COc3ccccc3O2)o1)N1CCCc2ccccc21` (stereo not given) was tested. Which Potency did it give?
Its Potency is inconclusive [inhibitor, single point].

`CC(C)(C)c1ccc(O)c(O)c1` was tested. Which Potency did it give?
The Potency was active: 0.891 µM.

`COc1cc(NC(=O)CN2CCN(c3ccccc3F)CC2)cc(OC)c1` was tested. Which Potency did it give?
The Potency was active: 22.4 µM.

For `CC(C)c1nc2sc3c(NCc4ccco4)ncnc3c2c2c1COC(C)(C)C2`, which Potency is on record?
Its Potency is inconclusive [inhibitor, partial curve].

`CCn1nnnc1SCC(=O)NC1CCCC1` was tested. Which “activity, negative = inhibition” value did it give?
Its value is inactive: 11%.

Which “activity, negative = inhibition” value does the source give for `O=C(CCSc1ccc(Br)cc1)Nc1cccnc1` here?
The value was inactive: 3.94%.

For `O=C1SC(SCc2ccccc2)=N/C1=C\c1ccco1`, which “activity, negative = inhibition” value is on record?
The value was inactive: -7.92%.

How did the activity, negative = inhibition turn out when `CC(C)=CCC/C(C)=C/C=C/C1=CC2(C)CC1(C)C(/C=C(\C)CCC=C(C)C)CC2=O` (stereo not given) was run?
Its activity, negative = inhibition is inactive: -14.1% [at 13.5 µM].

`O=C(O)c1cccc(-c2ccc(/C=c3/sc4nc5ccccc5n4c3=O)o2)c1` was tested. Which Potency did it give?
Its Potency is inconclusive [inhibitor, partial curve].

With `C#CCSc1nsc(SCC#C)c1C#N` as the compound, how does the Potency read?
Its Potency is inconclusive [inhibitor, partial curve].

With `COCCN(C(C)=O)c1nnc(-c2cnccn2)s1` as the compound, how does the Potency read?
The Potency was inconclusive [inhibitor, partial curve].

`CC(C)CCNC(=O)CO/N=C/c1ccccc1OC(F)F` was tested. Which “activity, negative = inhibition” value did it give?
Its value is inactive: 12.5%.

With `C=CCN=C(NC#N)SCC(=O)NCc1ccccc1` as the compound, how does the Potency read?
The Potency was inconclusive [inhibitor, single point].

For `CCOc1ccc(C(=O)N2CCCC2)cc1OC`, which “activity, negative = inhibition” value is on record?
Its value is inactive: -20.4%.

Which “activity, negative = inhibition” value does the source give for `COc1ccc(/C=C/C(=O)O)cc1S(=O)(=O)N1CCCCC1` here?
The value was inactive: 27.2%.

For `c1cncc(CNc2ncncc2-c2ccc3c(c2)OCO3)c1`, which Potency is on record?
The Potency was inconclusive [inhibitor, single point].

With `CC1(C)CC(=O)C(C2(O)C(=O)N(Cc3ccccc3)c3ccccc32)CO1` (stereo not given) as the compound, how does the Potency read?
Its Potency is active: 0.0316 µM.

Which “activity, negative = inhibition” value does the source give for `c1ccc(NCC2OCc3ccccc3CO2)cc1` here?
Its value is inactive: 3.25%.

For `Cc1ccc2nc(N/N=C/c3ccco3)cc(C)c2c1`, which “activity, negative = inhibition” value is on record?
The value was inactive: -3.86%.

With `COCCOC(=O)c1[nH]c2c(c1C)C(=O)CC(c1cc(OC)ccc1OC)C2` (stereo not given) as the compound, how does the “activity, negative = inhibition” value read?
Its value is inactive: -2.04%.

With `O=C(O)CSc1nnc(-c2cccc(S(=O)(=O)N3CCCCC3)c2)o1` as the compound, how does the Potency read?
The Potency was inconclusive [inhibitor, single point].

With `O=C(COC(=O)c1cc(-c2ccc(F)cc2)nc2ccccc12)NCC1CCCO1` (stereo not given) as the compound, how does the Potency read?
Its Potency is inconclusive [inhibitor, single point].

For `O=C(O)[C@@H](Br)[C@@H](Br)c1ccccc1[N+](=O)[O-]`, which activity, negative = inhibition is on record?
Its activity, negative = inhibition is inactive: 2.85% [at 13.5 µM].

`Cc1nc2nc[nH]n2c(=O)c1CCOC(=O)c1c(F)cccc1F` was tested. Which Potency did it give?
The Potency was inconclusive [inhibitor, single point].

`C/C(N)=C(/C#N)C(=O)COC(=O)c1cc(C)n(-c2ccc(F)cc2)c1C` was tested. Which Potency did it give?
The Potency was active: 12.6 µM.

How did the Potency turn out when `Cc1ccccc1C(=O)c1c[nH]c(C(=O)NCc2cccs2)c1` was run?
Its Potency is inconclusive [inhibitor, partial curve].

How did the Potency turn out when `COc1cc2c(c3oc(-c4ccccc4)cc(=O)c13)C=CC(C)(C)O2` was run?
Its Potency is active: 10 µM.
